# ± gives the standard deviation of the averaged measurements. The full ranking holds about 33,000 sequences; the median of “E-score (dimensionless, -0.5 to 0.5)” is about -0.049, and the highest 2% start at about 0.37. Some of the results follow.
# Test system: T1, PmTbr T-box DNA-binding domain (GST fusion)
# T1 sequence: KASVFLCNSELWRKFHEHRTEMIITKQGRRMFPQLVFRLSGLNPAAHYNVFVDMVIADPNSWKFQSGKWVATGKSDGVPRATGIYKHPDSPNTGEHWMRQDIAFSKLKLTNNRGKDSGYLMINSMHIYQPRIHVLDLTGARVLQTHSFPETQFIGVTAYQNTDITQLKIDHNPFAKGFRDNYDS
# Experiment: PBM E-score of 8-mer (E-score (dimensionless, -0.5 to 0.5)); Tbr is Tbrain of the sea star Patiria miniata (Pm) or the sea urchin Strongylocentrotus purpuratus (Sp); higher = stronger binding preference; most listed sequences are background and not binding sites
# Details: the construct has about 5 more residues each side
# Procedure, shortened: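 Each ungapped 8-mer received an enrichment E-score from the Universal PBM Analysis Suite, averaged over duplicate arrays. The proteins were Tbr T-box DNA-binding domains, covering the whole T-box plus about five flanking residues, fused to GST and expressed in BL21 E. coli at 20 °C before glutathione affinity purification. Universal Agilent oligonucleotide arrays were made double-stranded by primer extension and incubated with 200 nM protein in PBS (pH 7.5). The arrays were then scanned and quantified, and every 8-mer was scored from probe intensities.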
row,Sequence,PBM E-score of 8-mer
1,GAATGACA,0.196 ± 0.027
2,GGTCCCAC,0.252 ± 0.042
3,GGGTGGCA,0.322 ± 0.024
4,CGACCCGA,-0.114 ± 0.032
5,AAGAATGT,-0.0657 ± 0.011
6,CCAGGCGG,-0.022 ± 0.0044
7,AGACGCGC,0.0897 ± 0.037
8,AGGTCGAA,-0.0933 ± 0.056
9,CAGCGAAA,0.0314 ± 0.045
10,ATTAAGGC,-0.0488 ± 0.00077
11,CACTTTAC,0.274 ± 0.067
12,CTAATCAA,-0.0277 ± 0.017
13,CGTCTAAC,-0.0253 ± 0.036
14,AGGACGCC,-0.181 ± 0.04
15,ATGGGGTG,0.239 ± 0.043
16,GGTTACGA,-0.0977 ± 0.019
17,GTGGCCTA,-0.13 ± 0.028
18,CCCTTTCA,-0.107 ± 0.025
19,CTCTTCCA,-0.318 ± 0.01
20,ACATTATA,0.0324 ± 0.028
21,GCTAATAC,0.00914 ± 0.044
22,CACGGGGA,-0.163 ± 0.026
23,ATTACAAG,-0.0219 ± 0.11
24,ATGAATCA,-0.129 ± 0.0053
25,GACAAGTC,0.198 ± 0.024

row,Sequence,PBM E-score of 8-mer
1,TTGATAAA,-0.0386 ± 0.1
2,ATAACGGG,0.109 ± 0.011
3,CCGTATCA,-0.114 ± 0.048
4,GGGGCAAA,-0.0367 ± 0.074
5,GCCGAAGA,-0.194 ± 0.017
6,ACTGCAAC,-0.0288 ± 0.014
7,GCCTAGCA,-0.00521 ± 0.096
8,AAATGCCT,-0.0834 ± 0.0012
9,GACATGTA,0.108 ± 0.023
10,CATCTAAA,-0.151 ± 0.083
11,AATATCCT,-0.296 ± 0.02
12,ATCCGGTC,-0.099 ± 0.056
13,GTCCATAA,-0.285 ± 0.024
14,CCGGTCAG,-0.188 ± 0.096
15,ACTAGGTG,0.425 ± 0.012
16,AGCGCCCA,0.1023 ± 0.00096
17,GAAGTGAA,0.219 ± 0.011
18,GTCCGCTA,0.0554 ± 0.075
19,ATTAGGTA,-0.131 ± 0.0089
20,GCGCCGCA,0.209 ± 0.0044
21,ATCTTACC,-0.327 ± 0.021
22,GCATAGGA,-0.313 ± 0.025
23,ATCTCCCA,-0.115 ± 0.057
24,GCGCATAA,-0.0553 ± 0.0062
25,CAGAGTAC,-0.15 ± 0.026

row,Sequence,PBM E-score of 8-mer
1,ACGTCTTA,0.0321 ± 0.018
2,AGAATCTG,-0.0493 ± 0.0097
3,GCTAAAAA,0.169 ± 0.18
4,CACGCATA,0.126 ± 0.0089
5,CCGCGGCC,-0.24 ± 0.01
6,CGCTGCCG,0.0947 ± 0.04
7,TAACTAAA,-0.0805 ± 0.0067
8,GACGGGCC,-0.175 ± 0.03
9,TGCCTAAA,0.0625 ± 0.03
10,CAACGCTG,0.117 ± 0.063
11,AGCGTTTA,-0.0653 ± 0.017
12,AGTGCTCC,-0.152 ± 0.1
13,AACCGATT,-0.0639 ± 0.011
14,CGAACCAC,-0.0517 ± 0.072
15,GAGTAATC,0.0289 ± 0.036
16,AAAATGTT,-0.26 ± 0.032
17,GTAAATCA,0.0107 ± 0.017
18,GCTGGACC,-0.305 ± 0.095
19,ATGTATCA,0.165 ± 0.016
20,AGAATCAG,-0.271 ± 0.061
21,CAGGCATA,-0.204 ± 0.012
22,GATAGCAC,0.3558 ± 0.0009
23,GACTGCTC,-0.189 ± 0.0021
24,CGGAACAG,-0.0341 ± 0.0021
25,GAAGCCGC,0.0884 ± 0.0025

row,Sequence,PBM E-score of 8-mer
1,TCCCACCA,0.0909 ± 0.011
2,AAGTACGA,-0.0268 ± 0.021
3,GGGACGGA,-0.192 ± 0.044
4,CACACTAA,0.241 ± 0.1
5,GTGAGCGA,0.0746 ± 0.0075
6,AGGCTGAA,-0.124 ± 0.018
7,CCGTCTCC,-0.1972 ± 0.00052
8,CAGGAGCG,-0.107 ± 0.02
9,AAGGGTGA,0.19 ± 0.0034
10,GACCGTGC,-0.0323 ± 0.021
11,ACTCGTAT,0.0291 ± 0.0037
12,AGAGACCC,-0.168 ± 0.05
13,ACTTAACT,0.0692 ± 0.0023
14,CAATGGAC,-0.0519 ± 0.011
15,CTCGGGCC,-0.147 ± 0.047
16,CTGGGCTC,-0.2693 ± 0.00028
17,GAGCGAAA,0.077 ± 0.028
18,CCCAGACC,0.0363 ± 0.0064
19,CGAGTCCA,-0.145 ± 0.013
20,ATTTAGCG,0.251 ± 0.038
21,ACCACAAC,0.0895 ± 0.082
22,CCGCCCAG,0.0652 ± 0.03
23,GACTGCTA,-0.0203 ± 0.018
24,ACTGCATA,0.00104 ± 0.047
25,ACAACCAA,-0.0472 ± 0.0033

row,Sequence,PBM E-score of 8-mer
1,GAGCATAC,-0.012 ± 0.086
2,AAAGCTTA,0.0234 ± 0.01
3,CGAATTCC,-0.164 ± 0.079
4,AGTCCCAC,0.00665 ± 0.0034
5,ATGCAATA,-0.341 ± 0.0082
6,TCACTTCA,0.186 ± 0.021
7,GCAACAAC,0.0808 ± 0.019
8,CGAAATAA,0.233 ± 0.009
9,AGCACCGG,0.0404 ± 0.045
10,GGTGTAGA,0.341 ± 0.011
11,GCCTGGCA,0.182 ± 0.023
12,AATAAAAT,-0.0375 ± 0.16
13,ATCTCCAC,-0.00808 ± 0.021
14,AAGCGTTC,0.00655 ± 0.0066
15,GATTCCCA,0.0419 ± 0.025
16,AGACATCT,-0.225 ± 0.02
17,AGCATCCT,-0.0489 ± 0.021
18,AGACAACA,0.153 ± 0.0063
19,TCTCTCAA,0.104 ± 0.02
20,ACAAATAT,0.102 ± 0.071
21,GGAGCGTA,-0.187 ± 0.047
22,ATTAGTCC,-0.29 ± 0.097
23,AAGACACC,0.3306 ± 0.0024
24,AAACTAAC,0.239 ± 0.05
25,ACTCGTTA,0.148 ± 0.012

row,Sequence,PBM E-score of 8-mer
1,CTGGTAAG,-0.0318 ± 0.058
2,ACATATTA,-0.131 ± 0.051
3,AGGTTTGA,0.0543 ± 0.0026
4,AAGAGGAA,-0.204 ± 0.07
5,ATGTGTGG,0.3184 ± 0.0012
6,GGCGGTAC,0.0877 ± 0.056
7,GATGCGCA,0.0235 ± 0.013
8,TCAGCGCA,-0.015 ± 0.075
9,CTAGAATC,-0.0716 ± 0.089
10,GCTTGGCC,-0.192 ± 0.015
11,CTGTCACC,0.428 ± 0.013
12,CTTTAAAG,0.116 ± 0.04
13,CATGTCAG,-0.0539 ± 0.036
14,GAAGCCTA,-0.215 ± 0.018
15,AGTGAGCC,-0.107 ± 0.0082
16,GATCAAAC,0.0441 ± 0.01
17,AGTTGACG,0.153 ± 0.053
18,CATCACTC,0.143 ± 0.007
19,TCAGCCCA,-0.187 ± 0.0087
20,CACTAACA,0.288 ± 0.012
21,ATCGTCAT,-0.0319 ± 0.033
22,ACACGAAC,-0.0434 ± 0.016
23,CGTTTCAC,0.132 ± 0.07
24,CCTTCAAC,-0.183 ± 0.12
25,CCCGTACG,-0.19 ± 0.02

row,Sequence,PBM E-score of 8-mer
1,ACGACTGG,-0.0319 ± 0.061
2,CCTGCCTC,0.0822 ± 0.034
3,CGGGGCAA,-0.147 ± 0.097
4,AGACTATA,-0.0796 ± 0.016
5,AATTTCCT,-0.0748 ± 0.0029
6,CAGGATCC,-0.177 ± 0.018
7,TTAGAGAA,-0.103 ± 0.055
8,CACGGACG,-0.0988 ± 0.092
9,CGCTTGCC,0.0749 ± 0.038
10,CGACGTCA,0.0829 ± 0.024
11,CAATTAAA,-0.0976 ± 0.069
12,AGTAAACC,-0.268 ± 0.015
13,CGGACACA,0.106 ± 0.11
14,ACCGAAGT,0.0446 ± 0.06
15,GGGAGGAC,-0.279 ± 0.058
16,ATGCCTCC,-0.392 ± 0.0059
17,CCCTCAGA,0.0287 ± 0.078
18,AATAGTCC,-0.174 ± 0.04
19,GAACCCCC,-0.16 ± 0.03
20,AAAAAGTA,-0.0122 ± 0.042
21,CCCTTTAC,-0.0272 ± 0.088
22,AACAGTAA,-0.0744 ± 0.13
23,AATCTGCG,0.0216 ± 0.044
24,ACTAGAGT,-0.0756 ± 0.027
25,ACAGCTCT,0.197 ± 0.025

row,Sequence,PBM E-score of 8-mer
1,CTCTAGAG,-0.287 ± 0.016
2,ACTGTTAA,0.21 ± 0.045
3,AATGGATA,-0.201 ± 0.075
4,ACGCCCGC,0.126 ± 0.062
5,AACTTTCG,0.0665 ± 0.036
6,CAACGATG,0.0658 ± 0.039
7,GATGACAC,0.36 ± 0.02
8,CATCGTCA,0.157 ± 0.002
9,GTGGGCCA,-0.191 ± 0.031
10,GTTCAGCA,0.127 ± 0.002
11,AGGAAAAG,-0.104 ± 0.028
12,CCCTCTGA,-0.181 ± 0.012
13,GTCTGTCA,0.105 ± 0.025
14,ATCGAGGC,-0.106 ± 0.086
15,ACCTGGTG,0.2001 ± 0.0019
16,AAAGGAGT,-0.0983 ± 0.0027
17,GACTGAAC,-0.193 ± 0.095
18,CGTCAGGA,0.18 ± 0.04
19,GATGTACA,-0.0998 ± 0.024
20,AATCGCGG,0.0943 ± 0.019
21,GGTCCAAC,-0.179 ± 0.037
22,CACCTGCC,0.406 ± 0.021
23,ACAGAATC,0.136 ± 0.094
24,AGATGTAT,-0.0375 ± 0.13
25,TATATTAA,-0.171 ± 0.065

row,Sequence,PBM E-score of 8-mer
1,ACTGCGAC,0.0881 ± 0.0041
2,ACCGCTAG,0.0269 ± 0.03
3,AAACGAGG,-0.14 ± 0.02
4,TAACTCGA,-0.184 ± 0.0027
5,AACTTGTC,0.34353 ± 0.00012
6,CAGTAGCG,0.206 ± 0.055
7,CTAGGTAA,-0.173 ± 0.055
8,ACACGTGA,0.292 ± 0.017
9,ACGCATTG,0.123 ± 0.017
10,AACGCGAT,0.203 ± 0.012
11,ATTAGAAT,-0.178 ± 0.014
12,CGCCAGAG,-0.0266 ± 0.0061
13,CTGCAAAA,0.0952 ± 0.052
14,ATTACAGC,-0.0203 ± 0.0081
15,CAGAACCA,-0.232 ± 0.018
16,CCGAGATC,-0.227 ± 0.026
17,AAAAGATG,-0.119 ± 0.036
18,GATCGTAA,-0.0965 ± 0.021
19,CCCAACTC,-0.0345 ± 0.098

# Source: the supplement of paper PMC4166925
